{"source": "PubChem BioAssay AID1346428", "about": "(National Center for Advancing Translational Sciences (NCATS), 2018)", "note": "Several values for one entry are separate records, joined by “and”; a condition that tells them apart may be missing. Identical values can stand only once. About 1,200 (2.5%) of roughly 48,000 compounds were called active. Another 2% or so got no clear call; they are omitted.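 Rule for the calls: active = activation of at least 60% and not above a set upper limit (about 1 call in 100 departs from these limits); inconclusive = activation of 40% to 60%, or above that upper limit; inactive = activation under 40%.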 This is one part of the list. Where a structure was tested more than once in an assay, its records may differ in their call."}
{"target": "Probable G-protein coupled receptor 32 (Homo sapiens) (UniProt O75388)", "sequence (O75388 whole entry, looked up)": "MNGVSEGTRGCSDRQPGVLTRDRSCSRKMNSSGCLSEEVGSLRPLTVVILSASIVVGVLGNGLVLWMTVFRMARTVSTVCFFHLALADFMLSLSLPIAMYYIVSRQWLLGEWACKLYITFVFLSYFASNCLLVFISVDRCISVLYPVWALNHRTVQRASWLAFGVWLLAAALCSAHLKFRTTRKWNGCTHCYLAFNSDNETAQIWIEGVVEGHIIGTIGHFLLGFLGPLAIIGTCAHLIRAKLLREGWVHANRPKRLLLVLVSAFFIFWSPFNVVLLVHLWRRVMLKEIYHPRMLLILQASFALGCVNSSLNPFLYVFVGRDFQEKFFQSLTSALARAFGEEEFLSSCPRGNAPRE", "experiment": "qHTS for Agonists of Human Resolvin D1 Receptor DRV1; note: 0% is about no effect", "conditions": "CHO-K1 GPR32 beta-arrestin PathHunter luminescence, 90 min; at 76.9 µM; stronger effect = higher value; zero percent set by DMSO-only wells", "how_it_was_run": "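Step 1: seed CHO-K1 GPR32 beta-arrestin cells, 2,500/well, overnight at 37 °C. Step 2: add compounds, 90 min at 37 °C. Step 3: detection reagent, 1 h ambient, then luminescence.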"}
{"smiles": "Cn1c(=O)n(C)c2cc(CNCCc3ccccc3)ccc21", "activation": "inactive: -9.23%"}
{"smiles": "O=C(Nc1ccc2c(c1)OCO2)c1cccn(Cc2ccc(F)cc2)c1=O", "activation": "inactive: 24.3%"}
{"smiles": "CCOC(=O)CC(SP(=S)(OC)OC)C(=O)OCC", "note": "(configuration not stated)", "activation": "inactive: -111% and inactive: -23.9%"}
{"smiles": "NCC(CC(=O)O)c1ccc(Cl)cc1", "note": "(configuration not stated)", "activation": "inactive: -2.41% and inactive: -0.254%"}
{"smiles": "O=C1OC(c2ccc(O)c(S(=O)(=O)O)c2)(c2ccc(O)c(S(=O)(=O)O)c2)c2c(Br)c(Br)c(Br)c(Br)c21", "activation": "inactive: -5.77%"}
{"smiles": "CC(C)=C[C@@H]1[C@@H](C(=O)OCc2coc(Cc3ccccc3)c2)C1(C)C", "activation": "inactive: 23.7%"}
{"smiles": "CCC(CC)(CNC(=O)CCCO)c1cccc(OC)c1", "activation": "inactive: -4.1%"}
{"smiles": "CCCN(CCC)CCc1c[nH]c2ccccc12", "activation": "inactive: -4.03%"}
{"smiles": "CN1CC[C@]23c4c5ccc(O)c4O[C@H]2[C@@H](O)C=C[C@H]3[C@H]1C5", "activation": "inactive: 11.9%"}
{"smiles": "O=[N+]([O-])c1cc([N+](=O)[O-])c2ccccc2c1", "activation": "inactive: 34.8%"}
{"smiles": "C[Se]C[C@H](N)C(=O)O", "activation": "inactive: -13.9%"}
{"smiles": "NC(N)=Nc1ccc2[nH]c3c(c2c1)C[C@@]1(O)[C@H]2Cc4ccc(O)c5c4[C@@]1(CCN2CC1CC1)[C@H]3O5", "activation": "inactive: -25.5%"}
{"smiles": "CCOC(=O)c1ncn2c1[C@@H]1CCCN1C(=O)c1cc(OC)ccc1-2", "activation": "inactive: -9.3%"}
{"smiles": "O=c1c2ccccc2nc(/C=C\\c2cccc(Br)c2)n1-c1ccc(O)cc1", "activation": "inactive: -34.7%"}
{"smiles": "CCC1(C2=NCCN2)Cc2ccccc2O1", "note": "(configuration not stated)", "activation": "inactive: 1.55% and inactive: 17%"}
{"smiles": "CCSc1nnc(NC(=O)c2cccn(Cc3ccc(Cl)cc3)c2=O)s1", "activation": "inactive: 18.5%"}
{"smiles": "CC[C@@H](CO)NC(=O)[C@@H]1C=C2c3cccc4[nH]cc(c34)C[C@H]2N(C)C1", "activation": "inactive: 16% and inactive: 5.56%"}
{"smiles": "CCOc1ccc(CN2C(=O)c3ccccc3Sc3ccc(C(=O)N4CCC5(CC4)OCCO5)cc32)cc1", "activation": "inactive: -8.61%"}
{"smiles": "Cc1c(C(c2ccc(O)cc2)c2c(O)c3ccccc3oc2=O)c(=O)n(-c2ccccc2)n1C", "note": "(configuration not stated)", "activation": "inactive: -1.17%"}
{"smiles": "NC(=O)c1ccc(NC(=O)c2cccn(Cc3ccccc3)c2=O)cc1", "activation": "inactive: 0.404%"}
{"smiles": "CCC1(CCC(C)C)C(=O)NC(=O)NC1=O", "activation": "inactive: 4.95%"}
{"smiles": "Cc1ccc(-n2c(/C=C/c3cccc(C(F)(F)F)c3)nc3ccccc3c2=O)cc1", "activation": "inactive: -7.23%"}
{"smiles": "CC(=O)c1ccc(NC(=O)c2sc3nc4c(cc3c2N)N2CCC4CC2)cc1", "activation": "inactive: 41%"}
{"smiles": "O=[N+]([O-])c1ccc(O[C@@H]2O[C@H](CO)[C@@H](O)[C@H](O)[C@H]2F)c([N+](=O)[O-])c1", "activation": "inactive: -6.77%"}
{"smiles": "O=C(O)c1nn(Cc2ccc(Cl)cc2Cl)c2ccccc12", "activation": "active: 64% and inactive: -2.99%"}
{"smiles": "Nc1ccccc1C(=O)OCC(O)CO", "note": "(configuration not stated)", "activation": "inactive: -5.39%"}
{"smiles": "CC(C)(C)c1cc(C=C(C#N)C#N)cc(C(C)(C)C)c1O", "activation": "inactive: -20.8%"}
{"smiles": "O=C(O)C(Cl)Cl", "activation": "inactive: -25.9%"}
{"smiles": "Cc1ccc(-n2c(/C=C/c3ccccc3)nc3ccccc3c2=O)cc1C", "activation": "inactive: -12.2%"}
{"smiles": "C[C@@H]1C[C@@H]([C@H](O)CC2CC(=O)NC(=O)C2)C(=O)[C@@H](C)C1", "activation": "inactive: -7.28%"}
{"smiles": "Cc1ccc2scc(N3CCN(C)CC3)c(=O)c2c1", "activation": "inactive: -33%"}
{"smiles": "C[C@H](N)C(=O)c1ccccc1", "activation": "inactive: -47.9%"}
{"smiles": "COc1cc(C(O)CN)ccc1O", "note": "(configuration not stated)", "activation": "inactive: -3.69%"}
{"smiles": "CCOC(C(=O)OCCN(C)C)(c1ccccc1)c1ccccc1", "activation": "inactive: -8.83%"}
{"smiles": "CN1[C@@H]2CC[C@H]1CC(OC(=O)c1cc(Cl)cc(Cl)c1)C2", "note": "(some centres not stated)", "activation": "inactive: 1.94%"}
{"smiles": "O=c1[nH]oc2c1CCNC2", "activation": "inactive: -18.6% and inactive: -3.96%"}
{"smiles": "Cc1cccc(CN2C(=O)CN=C(c3ccccc3Cl)c3cc(Cl)ccc32)c1", "activation": "inactive: 12.5%"}
{"smiles": "Cc1ccc(C)c(CN2C(=O)c3ccccc3Sc3ccc(C(=O)N4CCC5(CC4)OCCO5)cc32)c1", "activation": "inactive: -19.2%"}
{"smiles": "O=C(c1ccc2c(c1)N(Cc1c(F)cccc1Cl)C(=O)c1ccccc1S2)N1CCC2(CC1)OCCO2", "activation": "inactive: -17.2%"}
{"smiles": "C[N+]1(C)CCc2cc3c(cc2[C@H]1[C@@H]1OC(=O)c2c1ccc1c2OCO1)OCO3", "activation": "inactive: 5.16%"}
{"smiles": "O=C(Nc1ccc(OC(F)(F)F)cc1)c1cccn(Cc2ccccc2Cl)c1=O", "activation": "inactive: -0.878%"}
{"smiles": "CCn1c(CN2CCN(C)CC2)nc2ccccc21", "activation": "inactive: -1.14%"}
{"smiles": "NC(CCP(=O)(O)O)C(=O)O", "note": "(configuration not stated)", "activation": "inactive: 10.7%"}
{"smiles": "CC(=O)C1CCOC1=O", "note": "(configuration not stated)", "activation": "inactive: -17.3%"}
{"smiles": "Cc1cccc(-n2c(CC3C(=O)Nc4ccc(C)cc43)nc3ccccc3c2=O)c1", "note": "(configuration not stated)", "activation": "inactive: -28.4%"}
{"smiles": "NCC1(CC(=O)O)CCCCC1", "activation": "inactive: 7.94% and inactive: 5.77%"}
{"smiles": "COc1cccc(-n2c(/C=C/c3cccc(C)c3)nc3ccccc3c2=O)c1", "activation": "inactive: -5.71%"}
{"smiles": "CCC(=O)C(CC(C)N(C)C)(c1ccccc1)c1ccccc1", "note": "(configuration not stated)", "activation": "inactive: 46.3%"}
{"smiles": "Cc1cccc(Cn2cccc(C(=O)Nc3nc4ccccc4s3)c2=O)c1", "activation": "inactive: 36.2%"}
{"smiles": "CCOC(=O)c1ccc(NC(=O)CSc2nc3c(cc2C#N)N2CCC3CC2)cc1", "activation": "inactive: 13.5%"}
{"smiles": "Nc1ccc(Cl)cc1N", "activation": "inactive: -52.4%"}
{"smiles": "COC[C@H]1OC(=O)c2coc3c2[C@@]1(C)C1=C(C3=O)C2CCC(=O)[C@@]2(C)C[C@H]1OC(C)=O", "note": "(some centres not stated)", "activation": "inactive: -10.3%"}
{"smiles": "O=C(CCCN1CCC2(CC1)C(=O)NCN2c1ccccc1)c1ccc(F)cc1", "activation": "inactive: -3.67% and inactive: -2.01%"}
{"smiles": "C[C@@H]1O[C@H](C[N+](C)(C)C)CS1", "activation": "inactive: 15.2%"}
{"smiles": "O=[N+]([O-])O[C@H]1CO[C@H]2[C@@H]1OC[C@H]2O[N+](=O)[O-]", "activation": "inactive: -11.7%"}
{"smiles": "Cc1ccc(-n2c(/C=C/c3cccc4ccccc34)nc3ccccc3c2=O)cc1", "activation": "inactive: -13.4%"}
{"smiles": "CC(C)Oc1cccnc1N(C)C1CCN(Cc2ccccc2)CC1", "activation": "inactive: -3.53%"}
